Reference: the supplement of paper PMC10126150
Values marked as one replicate rest on one cluster of the flow cell; about a third of the high ones do not repeat.

Each sequence was assayed on ATP (assay: switch fluorescence ratio, 500 uM ATP over buffer (Cy3 cluster intensity, sum of 5 cycles each) (fold (ratio)); higher = stronger signal-on switching upon ATP binding; sequences stand for … in TCGTCGGCAGCGTCAGATGTGTATAAGAGACAGTTTTTTTTTTTTTTTTTTTTTTTTT…TC). Details: aptamer strand: ATP DNA aptamer (quencher-CACCTGGGGGAGTATTGCGGAGGAAGG + anchor), 100 nM annealed; ATP concentration: 500 uM; one replicate.
Summary of the method: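 Cy3-labelled switching-strand clusters on a modified Illumina MiSeq flow-cell were annealed to 100 nM quencher-labelled ATP aptamer, imaged in selection buffer, then imaged after 15 min with 500 uM ATP at 22 °C. Five buffer/ATP cycles ran, with NaOH stripping and re-annealing between them. The fluorescence ratio is summed target-cycle over summed buffer-cycle Cy3 intensity per cluster, averaged per switch-domain sequence. Clusters outside 100-1000 RFU were excluded.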
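Also: ATP exposure 15 min at 22 °C before imaging.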

| Sequence | switch fluorescence ratio |
| --- | --- |
| CTGCCTTGCT | 0.988 |
| CTGCGTAGAC | 1.67 |
| CTGCGTCGGC | 1.06 |
| CTGCTCTTA | 0.989 |
| CTGCTGACCT | 1.11 |
| CTGCTGAGGC | 1.03 |
| CTGCTGGTGT | 1.08 |
| CTGCTTGGTC | 1.01 |
| CTGGAAGGTA | 0.99 |
| CTGGACACCA | 0.997 |
| CTGGAGACGT | 1.05 |
| CTGGAGGCTA | 1.28 |
| CTGGATGCAT | 1.16 |
| CTGGATGGAC | 1.05 |
| CTGGATGTGC | 0.979 |
| CTGGCATTCA | 1.01 |
| CTGGCCCCGA | 1.01 |
| CTGGCCCGG | 1.01 |
| CTGGCCCGTT | 0.975 |
| CTGGCCGAAT | 1.04 |
| CTGGCTGTT | 0.957 |
| CTGGCTTAAA | 1.02 |
| CTGGGAAAGT | 0.994 |
| CTGGGACCGA | 1.03 |
| CTGGGAGTTT | 0.916 |
| CTGGGATGCA | 1.04 |

| Sequence | switch fluorescence ratio |
| --- | --- |
| CTGGGCGAGC | 1.01 |
| CTGGGCGGCA | 1.04 |
| CTGGGCGGG | 0.989 |
| CTGGGGACGA | 0.998 |
| CTGGGGTCCG | 1 |
| CTGGGTGAGG | 1.01 |
| CTGGTAGCCC | 1.01 |
| CTGGTAGTCA | 1.01 |
| CTGGTATAAA | 0.986 |
| CTGGTATTCC | 1.02 |
| CTGGTATTT | 0.967 |
| CTGGTGATCT | 1.01 |
| CTGGTGTAT | 1 |
| CTGGTTCCGC | 1.93 |
| CTGTACATGA | 1 |
| CTGTACCACG | 1.06 |
| CTGTACCTCA | 1.03 |
| CTGTAGGCGA | 1.32 |
| CTGTATGAGC | 1.18 |
| CTGTATTCGG | 1.02 |
| CTGTCAGAG | 1.06 |
| CTGTCATTAG | 1.05 |
| CTGTCCCGAT | 0.99 |
| CTGTCCCTGC | 0.976 |
| CTGTCTAAAG | 1.05 |
| CTGTGAATAA | 1.02 |

| Sequence | switch fluorescence ratio |
| --- | --- |
| CTGTGCCCGA | 1.05 |
| CTGTGCCCGG | 1.04 |
| CTGTGCGCAT | 1.9 |
| CTGTGGAGGA | 1 |
| CTGTGTAGAA | 0.993 |
| CTGTGTGCAA | 2.71 |
| CTGTTACACT | 0.973 |
| CTGTTCGTTC | 0.973 |
| CTGTTCTGGT | 0.98 |
| CTGTTTTTCA | 0.988 |
| CTTAAAGCTA | 1.07 |
| CTTAAGGCTT | 0.972 |
| CTTAAGTTTG | 0.943 |
| CTTACAGTCT | 1.03 |
| CTTACGAAAA | 1.07 |
| CTTACGGTAA | 1.16 |
| CTTACTGCCG | 1.05 |
| CTTAGAAAG | 1.05 |
| CTTAGAACCA | 0.953 |
| CTTAGAGCTC | 0.992 |
| CTTAGATAGG | 0.979 |
| CTTAGCAGTG | 1.03 |
| CTTAGCCC | 0.993 |
| CTTAGCCGGT | 0.995 |
| CTTAGCGGTG | 0.983 |
| CTTAGGCAAT | 2.47 |

| Sequence | switch fluorescence ratio |
| --- | --- |
| CTTAGGGGGG | 1 |
| CTTAGTAGTC | 0.973 |
| CTTAGTATGC | 0.99 |
| CTTAGTGCAG | 0.987 |
| CTTATAGCA | 1.2 |
| CTTATATTGC | 1.06 |
| CTTATGACTT | 0.984 |
| CTTATGCGGT | 0.994 |
| CTTATTGGG | 1.02 |
| CTTATTGGTT | 1.04 |
| CTTATTTAAA | 0.988 |
| CTTCAAGCCC | 1.05 |
| CTTCAATTTT | 0.988 |
| CTTCACTGCG | 1.09 |
| CTTCAGACTA | 0.988 |
| CTTCAGATAC | 2.17 |
| CTTCAGTAGG | 1.04 |
| CTTCAGTATT | 0.97 |
| CTTCATGACC | 1.05 |
| CTTCATGCTG | 1 |
| CTTCATTGGC | 1.02 |
| CTTCCGATCG | 1.07 |
| CTTCCTAAT | 1.09 |
| CTTCCTGATC | 1.19 |
| CTTCGAGACT | 1.02 |
| CTTCGAGTCT | 1.13 |

| Sequence | switch fluorescence ratio |
| --- | --- |
| CTTCGATATT | 1.01 |
| CTTCGGTGT | 0.993 |
| CTTCGTCTTC | 0.993 |
| CTTCGTTTTG | 1.02 |
| CTTCTATTTG | 0.996 |
| CTTCTGATT | 1.04 |
| CTTGAACTTG | 1 |
| CTTGAATACG | 1.11 |
| CTTGACATCG | 0.949 |
| CTTGACTCAG | 1 |
| CTTGACTCAT | 1.04 |
| CTTGATAAAC | 1.03 |
| CTTGCACTAG | 1.15 |
| CTTGCAGAAA | 1.01 |
| CTTGCAGTCC | 1.19 |
| CTTGCATCG | 1.04 |
| CTTGCCTTGA | 1 |
| CTTGCGTATG | 1 |
| CTTGCGTCCT | 1.03 |
| CTTGCGTTTT | 0.989 |
| CTTGCTCCAC | 3.56 |
| CTTGGAAGAC | 2.15 |
| CTTGGAGTCT | 0.994 |
| CTTGGGCCTT | 1 |
| CTTGGGTAAT | 1.01 |
| CTTGGTCTCT | 1 |

| Sequence | switch fluorescence ratio |
| --- | --- |
| CTTGGTTTA | 0.958 |
| CTTGTAGAGC | 1.06 |
| CTTGTCCCCA | 1.02 |
| CTTGTCTACT | 0.982 |
| CTTGTGGGA | 0.978 |
| CTTGTTAGAG | 0.935 |
| CTTTAACCGG | 1.07 |
| CTTTACGACT | 0.991 |
| CTTTAGAACT | 0.957 |
| CTTTAGGACG | 0.9 |
| CTTTAGGGTT | 0.995 |
| CTTTATCATG | 1.03 |
| CTTTCCCGCG | 1.6 |
| CTTTCCTGAT | 0.985 |
| CTTTCCTTTA | 1.02 |
| CTTTCGACGT | 1.38 |
| CTTTCTATA | 0.92 |
| CTTTCTGATC | 0.986 |
| CTTTCTGTTT | 1.04 |
| CTTTGAAGTG | 0.982 |
| CTTTGAGGGT | 1 |
| CTTTGCCGCT | 1.01 |
| CTTTGGACAC | 1.05 |
| CTTTGTAAGA | 1.04 |
| CTTTGTCTAG | 0.966 |
| CTTTGTTCGT | 0.969 |

| Sequence | switch fluorescence ratio |
| --- | --- |
| CTTTGTTGTG | 0.971 |
| CTTTTAAAG | 0.986 |
| CTTTTATGAC | 1.02 |
| CTTTTATGCT | 0.988 |
| CTTTTCCGAC | 1.66 |
| CTTTTCCGGG | 1 |
| CTTTTCCTGG | 0.994 |
| CTTTTCGGCC | 1.01 |
| CTTTTGTTCC | 1.05 |
| CTTTTTAAAA | 0.956 |
| CTTTTTGGTG | 1.01 |
| CTTTTTTACT | 1.05 |
| CTTTTTTCCA | 1 |
| GAAAAATTGC | 0.959 |
| GAAAACCAGC | 1.06 |
| GAAAACGAGG | 1.07 |
| GAAAACGCCT | 1.22 |
| GAAAAGCGTG | 0.963 |
| GAAAATATTA | 0.999 |
| GAAAATTTTA | 1 |
| GAAACAAGA | 0.993 |
| GAAACAGACT | 1.16 |
| GAAACCCAGG | 3.54 |
| GAAACGACCG | 1.02 |
| GAAACGTAAA | 1.08 |
| GAAACTATGC | 1.09 |

| Sequence | switch fluorescence ratio |
| --- | --- |
| GAAACTCTTT | 0.998 |
| GAAAGAAATT | 0.992 |
| GAAAGACAGC | 1.06 |
| GAAAGACCAA | 0.977 |
| GAAAGCAACT | 1.7 |
| GAAAGCGCAG | 1.03 |
| GAAAGCTGCT | 0.977 |
| GAAAGCTTAA | 1.13 |
| GAAAGGTTAC | 1.05 |
| GAAAGTACTC | 1.22 |
| GAAAGTATCT | 1.01 |
| GAAAGTCTCT | 1.01 |
| GAAAGTGATC | 0.982 |
| GAAAGTGTTC | 1.08 |
| GAAAGTGTTT | 1.05 |
| GAAATAACTA | 1 |
| GAAATCACCC | 1.06 |
| GAAATCCTTG | 1.05 |
| GAAATCGCTC | 1.03 |
